We go through 89 sequences from the supplement of paper PMC11417369.

This is one part of the list.

The assay deals with PfAP2-HC AP2 domain (GST-tagged). Put plainly: gcPBM binding intensity (ln(normalized median fluorescence intensity)); higher = stronger DNA binding. Summed up:
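Alexa488 anti-GST antibody, scanned at 488 nm, detected GST-tagged P. falciparum DNA-binding domains that had been expressed in E. coli and incubated for 1 h on an Agilent 4 × 180k array. The array carried primer-extended double-stranded 36-bp intergenic genomic probes and negative controls. Binding intensity is the highest Masliner-normalised natural-log median intensity across replicate spots of either orientation of each probe.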
Regarding “CACAAAAATAGACACACACACATATAGATTTATTAT [CACACA_site7676]”, the “gcPBM binding intensity (ln)” value is 10.6. As for “TTATGGTTTAAATAAAGTACAAATAAATAAATATAT [XGTACX_site5777]”, the figure is 9.6; as for “ATACACATATGTTAATGTACACATATATAATATTTA [XGTACX_site163]”, 9.67. As for “ATATATTAAAAACGATGTACCCTGAACTAAAAAAAA [XGTACX_site4986]”, the figure is 9.73; as for “TATTTATTTATGTGTTGTACAAATAAATAGAGGTAT [XGTACX_site6408]”, 9.67; as for “TTTATTTATTACAATTTTTGAATCACCACACAGTCG [GTGCAC_negctrl_site413]”, 9.58. As for “ATCATGTTATATACATGTACATATATATATATATAT [XGTACX_site1329]”, the figure is 9.67; as for “TATATGAAAATGTTCATACACACATAAAAAAAAAAA [CACACA_site3237]”, 9.73; as for “CATATTTCTTTATTGGCACACATTTTTTCAATTATA [CACACA_site1618]”, 9.97. Take “AAAAAAAAAAAAAACACACACAAATTTAATCTATAT [CACACA_site6894]”: the “gcPBM binding intensity (ln)” value came out at 10.9.

For the sequence “TGTTATTACTTTATATCATCTTAAAATAAGCATATT [CACACA_negctrl_site1501]”, the “gcPBM binding intensity (ln)” value amounted to 9.48. As for “TTGAAAATACAAAATTGTACAAAGATTTAAATAAAA [XGTACX_site1182]”, the figure is 9.79; as for “TGAAATAAATAATGCACACTCTACAGATATACGTAT [CACACA_site5270]”, 9.78.

Take “CGCATACACAGACACACACACACATATAAATATGTA [CACACA_site6444]”: the “gcPBM binding intensity (ln)” value was 10.7. As for “AATTTTTTATTAAACACACAAACATATATATATATA [CACACA_site1937]”, the figure is 9.66; as for “TATACCTATAGACACACACACATATAGATTTATATA [CACACA_site7124]”, 11.1. As for TTCATTCAAATTAACGTGCACATTATTAGTAAAAAC, the figure is 9.52; as for TTATATAATTTAATAGTGCAATTATATTAATTTTTC, 9.44; as for “GTTCATACTTAATATTGTACTTTTCATGTAGTGTAT [XGTACX_site6613]”, 9.83. On to “AAATAAATATTTATATGTACATATATTTTATAATAC [XGTACX_site7041]”, for which the “gcPBM binding intensity (ln)” value is 9.7. As for “TAACATATTTTTAATACACACTCAAAAAAGTACTTA [CACACA_site5638]”, the figure is 9.44. As for “TACAAATATATATGCACACACATATACATACATATA [CACACA_site2182]”, the figure is 10. As for “TATTAGATATAATATATACACACCAACGAACGAAGA [CACACA_site1134]”, the figure is 10.1.

On to “ACAGTATCTGGTAGCTGTACGGATTGTAGAGAGTAG [XGTACX_site4872]”, for which the “gcPBM binding intensity (ln)” value was 9.71. Regarding “AGAATAATAAAATGGGTGCAATAGTTTTTTTTTTTT [GTGCAC_site9823]”, the “gcPBM binding intensity (ln)” value came to 9.75.

On to “CAAAACCTACATAACATACACACGCATATATAGAAT [CACACA_site2846]”, for which the “gcPBM binding intensity (ln)” value came out at 10.1. As for “TTCTTATCAAGAGAAAGTACATAAAAAATTAATAAG [XGTACX_site1821]”, the figure is 9.5; as for “CATGCAATATTAAACACACACTCATATAGCACAATA [CACACA_site6182]”, 10.1; as for “CCAACAAAAATAAGCACACACAAATATACATACATA [CACACA_site3606]”, 11.1. As for “TTGGATTTTCCATAATGTACACATAAAAGTGTTACA [XGTACX_site4544]”, the figure is 9.4; as for “TTTTAAAAAATATAATATAATATAATATAAAATAAA [CACACA_negctrl_site154]”, 9.37; as for “TAATATAGTATAGTATGTACATATAATTAGAATATT [XGTACX_site4053]”, 9.9. Turning to “TGGTATATATTTCCTTGTACATATAATATATATTGT [XGTACX_site3961]”, the “gcPBM binding intensity (ln)” value turned out to be 9.84. With “ATATATATATATATATGTACATATTTTAATAATTAA [XGTACX_site8549]”, the “gcPBM binding intensity (ln)” value stood at 9.61. “CGCGCACACGGACACACACACACACGGATATAAATA [CACACA_site7102]”: the “gcPBM binding intensity (ln)” value was found to be 11.3.

With “TGTTGTTACATATATACACACATATATATATTATAT [CACACA_site2397]”, the “gcPBM binding intensity (ln)” value came to 10.

Regarding “TCTTGACGAAGTAGAAGGATATATATATAAAAAAAA [CACACA_negctrl_site641]”, the “gcPBM binding intensity (ln)” value was determined as 9.47. As for “TCGTCTCTTCTTGTTCTGTTTTAGAAGGCTATATAT [CACACA_negctrl_site180]”, the figure is 9.73. On to “TCCAGGTATTTATTCTGTACACATAAAACATTTTAT [XGTACX_site8472]”, for which the “gcPBM binding intensity (ln)” value amounted to 9.71. As for “AGGAGGTCAGTTCACAGTACCCAGAAAACTCTACGA [XGTACX_site1992]”, the figure is 9.29.

As for “TATTAAAGGGGTTTCACACACATGTATAATTAATTT [CACACA_site200]”, the “gcPBM binding intensity (ln)” value is 9.98.

Regarding “AACCATATTTAGATTACACACAGTTTAAATATTTTA [CACACA_site6712]”, the “gcPBM binding intensity (ln)” value was found to be 9.68. On to “AATTTGTTATGTATATGTACATAAATAGATATATGA [XGTACX_site3930]”, for which the “gcPBM binding intensity (ln)” value worked out at 9.77. As for “AAAAAAAAATTTAAGTGTACATTCCATTTTAGTTTA [XGTACX_site5286]”, the figure is 9.38; as for “AAAATATATATGTATGTTTATATGTTTATATATATT [XGTACX_negctrl_site337]”, 9.67; as for “TCTAAGTATAAAGACACACAGAATAAAAAAAAATAT [CACACA_site2367]”, 9.81. As for “TATTTAATATATTTATGTACATATTTATTTATTATT [XGTACX_site524]”, the figure is 9.87; as for “TATTTTTCTTTATTGGTACACACGAAAAAAAAATTG [CACACA_site3054]”, 9.53; as for “AAAATCCAGTTTTCAAAATTGAACAAAAAAAAAATA [GTGCAC_negctrl_site542]”, 9.46. As for “ATATATTTTTTAAACACACACATAAATATTTGTGTA [CACACA_site2879]”, the figure is 9.91; as for “AAAGGATATGGACACACACACACATATATATATATA [CACACA_site8686]”, 10.6.

“CAACACTTATTGAAACGTACGCATATAGTTTCTTTT [XGTACX_site8960]”: the “gcPBM binding intensity (ln)” value is 9.7. As for “TTTATTTATATTTATACACACAAACATAATACTACT [CACACA_site7039]”, the figure is 9.87; as for “GGATAATATATTAGAACACACATATATCTGTAAAAA [CACACA_site4266]”, 9.81. As for “TAATATAATATATGCACACAAATATGTATATATGTG [CACACA_site2134]”, the figure is 9.88. As for “AATAAAATAATAAAAGCACACAAGAATACAGACAAA [CACACA_site112]”, the figure is 10.3. With “ATGTAAAACATAAAATGTACATATTATACAAACTAT [XGTACX_site5797]”, the “gcPBM binding intensity (ln)” value came out at 9.87.

Consider “TAAGTATAAATATTTACACACATTTGTTTTTTTTTA [CACACA_site7731]”, for which the “gcPBM binding intensity (ln)” value worked out at 9.87. As for “AACTATTTTATTATATGTACTTACGAATTTATAAAA [XGTACX_site5262]”, the figure is 9.44; as for “TAATATACATAATAATGTACATATTTTCATATATAC [XGTACX_site6913]”, 9.66.

For the sequence “CACAAAATAAATTAAACACACAACATCAGATATGTA [CACACA_site6529]”, the “gcPBM binding intensity (ln)” value was 10.1. As for “ATAAACTGATGTGTATGTACACATGTAATAATAAAT [XGTACX_site7649]”, the figure is 9.98; as for “TGTGTTGTAACAAAATGTACGAGCTTGATGTAGAAT [XGTACX_site2293]”, 9.86; as for “AATGTAGGTTTATTTACACACAAATATAAATATATA [CACACA_site1523]”, 9.84. As for “ACATGTATTTATAAGAGTACATATGTGTGCATGTTT [XGTACX_site7946]”, the figure is 9.96; as for “TTTTATCGATATATCTGTACATATTACTTATAATAA [XGTACX_site57]”, 9.78; as for “TGCTATAATTTATATACACACAAATATATACTCATA [CACACA_site6111]”, 9.73. As for “TATAACTATTTATAATGTACTCATGTATAATTATAT [XGTACX_site7913]”, the figure is 9.48; as for “TTAATTTATTTATGCACACATATATAATTACACATA [CACACA_site4544]”, 9.79; as for “TTTATATATTATATAAATATTATTATACTTTAAATA [TGCATGCA_negctrl_site236]”, 9.22. As to “ATGCTTTTGTCATGTGCACACACGTATATATTATAT [CACACA_site4163]”, the “gcPBM binding intensity (ln)” value stood at 10.3. “TCGAACATTAACATAACACACATATATATATATATA [CACACA_site2900]”: the “gcPBM binding intensity (ln)” value was found to be 9.84. Consider “AAGGTTATTTATATATGTACTTAATATATATATATG [XGTACX_site886]”, for which the “gcPBM binding intensity (ln)” value was determined as 9.68. In the case of “TTTATAATATACATAACACACAATTATTATTTCTTA [CACACA_site3624]”, the “gcPBM binding intensity (ln)” value amounted to 9.67. As for “TTTTTTTCCTTATCTATATATAATCAAATTTTCTAC [CACACA_negctrl_site867]”, the figure is 9.59; as for “AACTTTTAGAAGAACACACACATATAGATTATGACC [CACACA_site6256]”, 10.6; as for “TTATAACAAATATAGAGTACTAAAATTTTACGTTAT [XGTACX_site1410]”, 9.6.

As for “GAAATTTTTAAAAAGGTGCTTTTAACAAAAATTATT [GTGCAC_site9687]”, the “gcPBM binding intensity (ln)” value was determined as 9.39. “TTATTAAAAAAAATATGTACTCACAATATAATATAT [XGTACX_site3738]”: the “gcPBM binding intensity (ln)” value came to 9.51. Consider “TTTTTTTTTTCTTGTTGTACTTTTAATAATTCATAT [XGTACX_site4704]”, for which the “gcPBM binding intensity (ln)” value amounted to 9.71.

For “TATATATATATAACATGTACATAAAATACATTTATA [XGTACX_site7370]”, the “gcPBM binding intensity (ln)” value worked out at 9.44.

Take “ACCATCCTTAATACTTATTTTTTCACAATTAAGTAA [GTGCAC_negctrl_site269]”: the “gcPBM binding intensity (ln)” value was 9.59. As for AGTATTTTAATTTCAGTGCATTTTATTCTATAATTA, the figure is 9.62; as for “AAAAAAAAAAAAAATGCATGTGCGTAAATAATAATA [TGCATGCA_site793]”, 9.68. “AAGTTTTCTTACAGATGTACTTTTTAAAAATAAACT [XGTACX_site6632]”: the “gcPBM binding intensity (ln)” value came out at 9.57. Turning to “ATATATATCTATATTTGTACATATTACATTCAAGTT [XGTACX_site1749]”, the “gcPBM binding intensity (ln)” value was 9.75. As for “TTTAGGAAAGGCGGCACACATTTATATATTTATTTA [CACACA_site5931]”, the “gcPBM binding intensity (ln)” value stood at 9.74. As for “AAAAAAAAAAAAAGATGTACATATATTTTTATTATA [XGTACX_site654]”, the figure is 9.5. As for “AACCATTCTTCTAATTGTACATTGAAAAATCATGAT [XGTACX_site3854]”, the figure is 9.4.
